Biological target: kainate binding site on non-NMDA glutamate receptors
Test: [3H]kainate binding, rat cortical membranes
Conditions: 5–200 μM DCUKA tested
Protocol: Non-specific binding was defined with 0.5 mM kainate.

IC50: > 200 µM
SMILES: O=C(O)c1cc(NC(=O)N(c2ccccc2)c2ccccc2)c2c(Cl)cc(Cl)cc2n1 [DCUKA, (N,N-diphenyl)-4-ureido-5,7-dichloro-2-carboxy-quinoline]

From US6962930B1, “Compounds, compositions and method suitable for amelioration of withdrawal syndromes and withdrawal-induced brain damage” (Lohocla Research Corporation, priority 1997, dated 2005)
